From PubChem BioAssay AID1961 (Sanford-Burnham Center for Chemical Genomics, 2009)
Screen size: about 290,000 compounds; about 140 (0.048%) were called active. This list was built around the results that the source calls inconclusive (neither active nor inactive); the mix of calls is not that of the screen.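 Rule for the calls: active = activation above 40% with more than 50 cells counted in the well; inconclusive = wells holding fewer than 50 cells, flagged as toxic or sparse; inactive = the rest.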

molecular target: G-protein coupled receptor 55 (Homo sapiens) (UniProt Q9Y2T6); assay: selective activators of receptor GPR55 – imaging, U2OS cells, beta-arrestin-GFP redistribution, primary screen (AID 1961); conditions: at 10 µM, stronger effect = higher value;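 note: U2OS osteosarcoma cells stably expressing GPR55 and beta-arrestin-GFP; plate controls were DMSO negative control for no effect and LPI positive control for full effect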
UniProt Q9Y2T6, sequence (Q9Y2T6 whole entry, looked up): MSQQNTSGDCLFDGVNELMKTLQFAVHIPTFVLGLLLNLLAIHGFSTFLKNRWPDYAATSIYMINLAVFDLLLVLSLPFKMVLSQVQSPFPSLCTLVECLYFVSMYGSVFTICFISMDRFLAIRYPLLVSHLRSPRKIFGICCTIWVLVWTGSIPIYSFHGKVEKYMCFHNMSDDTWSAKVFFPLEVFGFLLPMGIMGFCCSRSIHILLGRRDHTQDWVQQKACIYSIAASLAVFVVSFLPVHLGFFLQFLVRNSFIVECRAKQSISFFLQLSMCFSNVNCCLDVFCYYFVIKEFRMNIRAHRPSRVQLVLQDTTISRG

Row | Structure (SMILES) | activation
1 | Cn1c(=O)c(C(=O)COC(=O)c2cc(-c3ccco3)nc3ccccc23)c(N)n(CC2CC2)c1=O | active: 59.6%
2 | CCCCCCCCCCOC(=O)Cn1c(COc2ccccc2OC)[n+](C)c2ccccc21 | inactive: 32.1%
3 | CCOC(=O)c1c(C)[nH]c(C)c1C(=O)CSc1nc2ccccc2c(=O)n1-c1ccc(C)cc1 | inconclusive: -0.2%
4 | Cn1c(=O)c(C(=O)COC(=O)c2cc(-c3ccco3)nc3ccccc23)c(N)n(Cc2ccccc2)c1=O | inactive: 8.3%
5 | O=C(c1ccccc1)N1CCN(C(=O)N2CCCCC2)CC1 | inconclusive: -0.2%
6 | O=C(CSc1nnc(-c2ccc3c(c2)OCO3)n1-c1ccccc1)c1ccccc1 | inconclusive: -0.2%
7 | Cc1nc2cc(C(=O)OCC(=O)Nc3cccc(Cl)c3)ccc2n1-c1ccccc1 | inconclusive: -0.2%
8 | O=C(Cn1cc(C(F)(F)F)cc(Cl)c1=O)Nc1cccc(Cl)c1 | inconclusive: -0.2%
9 | Brc1cc2c(cc1Br)OCCOCCOCCO2 | inconclusive: -0.1%
10 | COc1ccccc1NC(=O)CSCc1ccc([N+](=O)[O-])cc1 | inactive: -0.1%
11 | O=C(O)c1ccc(NC(=O)c2ccc3c(c2)C(=O)N(c2ccccc2)C3=O)cc1 | inactive: -0.1%
12 | O=C(COc1ccc2c(c1)OCO2)Nc1nccs1 | inconclusive: 0%
13 | Cc1cccc(NS(=O)(=O)c2cc([N+](=O)[O-])ccc2C)n1 | inactive: -0.1%
14 | CCOC(=O)N/N=C/c1c(C)nn(-c2cccc(C(F)(F)F)c2)c1Cl | inconclusive: -0.2%
15 | COc1ccccc1P(=O)(c1ccccc1)c1ccc([N+](=O)[O-])cc1 (stereo not drawn) | inactive: 0.2%
16 | Cc1c(C(=O)N2CCOCC2)sc(NC(=O)c2ccccc2F)c1C#N | inconclusive: 0%
17 | Fc1cccc(F)c1CN1CCN(c2ncccn2)CC1 | inconclusive: -0.2%
18 | CCOC(=O)N1CCN(C(=O)c2ccc3c(c2)N(Cc2cccc(Cl)c2)C(=O)c2ccccc2S3=O)CC1 (stereo not drawn) | inactive: 21.2%
19 | Cc1sc2nc(CSc3nc4ccccc4c(=O)n3CCCN3CCOCC3)[nH]c(=O)c2c1C | inactive: -0.1%
20 | COc1ccc(S(=O)(=O)NCCSC(C)(C)C)cc1Cl | inactive: -0.1%
21 | O=c1cnnc(SCc2ccc([N+](=O)[O-])cc2)[nH]1 | inactive: 0.2%
22 | CCOC(=O)c1[nH]c2ccc(C(=O)OC)cc2c1C(=O)OCC | inactive: -0.3%

Row | Structure (SMILES) | activation
23 | CCOc1ccc(S(=O)(=O)Nc2ncn[nH]2)cc1 | inconclusive: 0%
24 | Cc1nn(-c2cccc(Cl)c2)c2nc(C(F)(F)F)[nH]c(=O)c12 | inconclusive: -0.1%
25 | S=C(Nc1cccc(Cl)c1)Nc1ccc2cn[nH]c2c1 | inconclusive: -0.2%
26 | Cc1[nH]c2ccccc2c1C(=O)COC(=O)c1c(-c2ccccc2Cl)noc1C | inconclusive: -0.2%
27 | COc1cccc(CNC(=O)CCS(=O)(=O)c2ccc3c(c2)CC(C)N3C(=O)C2CC2)c1 (stereo not drawn) | inconclusive: -0.2%
28 | O=C(CNS(=O)(=O)c1cccs1)N1CCCC1 | inconclusive: -0.2%
29 | COc1cc2c3nnc(-c4ccccc4)c-3cn(Cc3ccc(F)cc3)c2cc1OC | inactive: 1.3%
30 | Cc1cc2c([nH]c3ccccc32)c(C)n1 | inconclusive: -0.2%
31 | Cc1noc(C)c1S(=O)(=O)N1CCCC1C(=O)O (stereo not drawn) | inconclusive: 0%
32 | CC(=O)Nc1ccc(Nc2ncnc3ccccc23)cc1 | inconclusive: -0.1%
33 | CN(C)c1ccc(/C=C/C(=O)c2ccccc2O)cc1 | inactive: 0.1%
34 | CCOC(=O)c1ccc(NC(=O)CC2OCCN(CC)C2=O)cc1 (stereo not drawn) | inconclusive: -0.2%
35 | Cc1cccc(-n2c(C)cc(/C=N\NC(=O)c3cccs3)c2C)c1 | inconclusive: -0.2%
36 | CCOC(=O)c1c(-c2ccc(OC)cc2)csc1NC(=O)CSc1ccccc1 | inconclusive: -0.1%
37 | Cc1nn(Cc2ccccc2)c(C)c1/C=N/NC(=O)CNc1cccc(C(F)(F)F)c1 | inconclusive: -0.1%
38 | COCc1[nH]c(=S)[nH]c(=O)c1C | inactive: -0.1%
39 | CN1CCN(/N=C/c2ccc(Cl)c(Cl)c2)CC1 | inconclusive: -0.2%
40 | CN1CCCN(C(=O)/C=C/c2ccc(F)cc2)CC1 | inconclusive: -0.1%
41 | COc1cc(/C=C/c2cc(OC(C)=O)c3ccccc3n2)c(OC(C)=O)c([N+](=O)[O-])c1 | inactive: 0.2%
42 | CCCNC(=O)CCC(NS(=O)(=O)c1ccc(C)cc1)C(=O)NCCC (stereo not drawn) | inconclusive: 2.5%
43 | COc1ccccc1NS(=O)(=O)c1cc([N+](=O)[O-])ccc1N/N=C/c1sc(N2CCOCC2)nc1-c1ccccc1 | active: 48.8%
44 | COc1cc([N+](=O)[O-])ccc1NC(=O)C[n+]1ccccc1 | inconclusive: -0.2%

Row | Structure (SMILES) | activation
45 | O=C(NCCN1CCOCC1)c1cc(-c2ccco2)on1 | inactive: -0.1%
46 | Cc1ccc(NC(=O)CS(=O)CC(=O)NC23CC4CC(CC(C4)C2)C3)cc1 (stereo not drawn) | inactive: 0%
47 | CCOC(=O)CCS(=O)(=O)c1nc(-c2ccccc2)cc(C(F)(F)F)n1 | inactive: 14.3%
48 | O=C(COC(=O)c1cccc(S(=O)(=O)N2CCOCC2)c1)c1ccccc1 | inconclusive: 17.1%
49 | CCCc1nnc2n1N=C(c1ccc(C)cc1)CS2 | inactive: -0.1%
50 | O=C(Cn1nc(-c2ccco2)ccc1=O)Nc1cc(C(F)(F)F)ccc1Cl | inactive: -0.1%
51 | CC(C)CCOCC(=O)Nc1cccc(C(=O)O)c1 | inconclusive: -0.2%
52 | CCOc1ccccc1Nc1nnc(SCC(=O)N2CCCC2)s1 | inconclusive: -0.1%
53 | O=C(CC(=O)N/N=C/c1ccccc1O)NCc1cccnc1 | inconclusive: -0.2%
54 | CCCCC(=O)Nc1cccc(NC(=O)c2ccc3c(c2)OCO3)c1 | inconclusive: 7.6%
55 | CC1=NNC(=O)/C1=C\c1cn(-c2ccccc2)nc1-c1ccc(F)cc1 | inactive: 2.4%
56 | O=C(Nc1ccc2c(c1)C(=O)OC2)c1ccc(F)cc1F | inactive: -0.2%
57 | CC(C)(C)NCc1cc(Br)ccc1OCc1cccs1 | inconclusive: -0.3%
58 | COc1ccccc1NC(=O)c1ccc(NC(=O)COC(=O)CCC2CCCC2)cc1 | inconclusive: -0.1%
59 | COCc1cc(C)nc(N)c1C#N | inactive: 0.1%
60 | CCN(CC)c1ccc(/C=N/N2CCN(Cc3ccc(C)cc3C)CC2)c(O)c1 | inconclusive: -0.2%
61 | C=C(C(=O)c1ccccc1)C(C)CC(=O)c1ccccc1 (stereo not drawn) | inconclusive: -0.1%
62 | Cc1cccc2nc(COc3ccc4ccccc4c3Br)cn12 | inactive: 0.4%
63 | CC(=O)/C(=N/Nc1ccc(Br)cc1)Sc1cccc2cccnc12 | inconclusive: -0.1%
64 | O=C(Nc1ccc(S(=O)(=O)N2CCCCC2)cc1)C1CC(=O)N(c2ccc(F)cc2)C1 (stereo not drawn) | inconclusive: 0%
65 | Cc1ccc(N(CC(=O)NC2CCCC2)C(=O)Cn2nnc(-c3ccccc3F)n2)cc1 | inactive: 0%
66 | COc1cc(S(=O)(=O)Nc2ncccc2C)c(OC)cc1Cl | inconclusive: 6.5%

Row | Structure (SMILES) | activation
67 | CN1CCN(C(=O)c2cnn(-c3ccccc3)c2NC(=O)c2ccc([N+](=O)[O-])cc2)CC1 | inconclusive: 0%
68 | COc1ccc(OCc2n(CC(=O)OC3CC(C)CCC3C(C)C)c3ccccc3[n+]2C)cc1 (stereo not drawn) | inactive: 25.5%
69 | Cc1ccc(/C=N/Nc2ccc3c(C(F)(F)F)cc(C(F)(F)F)nc3n2)cc1 | inactive: -0.2%
70 | CCCN1C(=O)/C(=C/c2c(NCCCOCC)nc3c(C)cccn3c2=O)SC1=S | inactive: 5.7%
71 | COCCN(C(=O)CCC(=O)Nc1cc(C)on1)C(C(=O)NC1CCCC1)c1ccccc1F (stereo not drawn) | inconclusive: 0%
72 | CCC(=O)Nc1ccc(OC)cc1OC | inactive: -0.2%
73 | O=C(O)C1CCCN1C(=O)c1cncc(Br)c1 (stereo not drawn) | inactive: -0.2%
74 | CC(OC(=O)c1cc2c(s1)CCCCC2)C(=O)NC(N)=O (stereo not drawn) | inconclusive: -0.1%
75 | CCOC(=O)c1c(C)[nH]c(C(=O)OCCOc2ccccc2C)c1C | inconclusive: -0.1%
76 | CCOC(=O)C(=O)C1=C(N2CCOCC2)/C(=C\c2cccc([N+](=O)[O-])c2)CC1 | inconclusive: -0.2%
77 | COCCCNC(=O)/C(C#N)=c1\s/c(=C\c2ccccc2OC(F)F)c(=O)n1CCCOC | inconclusive: -0.1%
78 | Cc1ccccc1N=Cc1cc2c(cc1O)OC(N)=C(C#N)C2c1ccccc1 (stereo not drawn) | inconclusive: -0.1%
79 | O=C(NCc1ccc(F)cc1)C(=O)NCC1OCCCN1S(=O)(=O)c1cccs1 (stereo not drawn) | inactive: -0.1%
80 | COC(=O)c1ccc(C)c(NC(=O)CCNC(=O)c2ccc([N+](=O)[O-])cc2)c1 | inconclusive: -0.1%
81 | Cc1ccc(N(CC(=O)N2CCN(Cc3ccccc3)CC2)S(C)(=O)=O)cc1C | inconclusive: 10.8%
82 | CS(=O)(=O)N(CC(=O)NCCc1ccccc1)C1CCCCC1 | inactive: -0.1%
83 | CC1=NNC(=O)/C1=C\c1cn(-c2ccccc2)nc1-c1ccc(Cl)cc1 | inactive: 30.2%
84 | CC1OC(O[C@H]2CC[C@]3(C)C4C=C[C@]56OC[C@@]7(CC[C@@H](C)[C@H](C)C75)[C@H](O)C[C@@]6(C)[C@]4(C)CC[C@H]3C2(C)C)C(OC2OC(CO)C(O)C(O)C2OC2OCC(O)C(O)C2O)C(O)C1O (stereo partly drawn) | inconclusive: 6.6%
85 | CCOc1ccccc1C(=O)Oc1ccc2ccc(=O)oc2c1 | inactive: 0.9%
86 | O=C(CCC(NC(=O)OCc1ccccc1)C(=O)OCc1ccccc1)NCC(=O)OCc1ccccc1 (stereo not drawn) | inconclusive: -0.2%
87 | CCCCC[C@H](O)/C=C/[C@H]1C=CC(=O)[C@@H]1C/C=C\CCCC(=O)O | inconclusive: -0.1%
88 | CC1(C)CC(NC(=O)c2ccc(Br)o2)CC(C)(C)N1 | inconclusive: 0%
